The whole screen tested about 48,000 compounds, of which about 450 (0.94%) were called active. Not shown: some 19% with an inconclusive outcome. Calls follow the shape of the dose curve; as a rule, active = well fitted inhibition curve with a large enough effect; inconclusive = small, poorly fitted or top-dose-only effect; inactive = no such curve, though single readings can be large or run the other way. This is one part of the list.

Experimental findings from PubChem BioAssay AID1508623 (National Center for Advancing Translational Sciences (NCATS), 2021) are described below.

The experiment can be described thus: Primary qHTS for Identification of Small Molecule Inhibitors of Huntingtin Promoter Activity. Also: nearly all actives have a fitted effect of over 50% in size. The conditions noted are these: HEK293 HTT promoter firefly luciferase reporter (activity 0% = vehicle and -100% = no light), 24 h; series mostly up to 57.5 µM; activity change, negative = inhibition: at the top concentration. The method in brief: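 Luminescence was read after Dual-Glo reagent and a 10 min room-temperature incubation. Values were normalized to vehicle (0% activity) and zero RLU (-100% activity). Reporter HEK293 cells had been exposed to compounds (up to 57.5 uM final) for 24 h.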
In the case of `CCOC(=O)c1cc2c(=O)n3ccccc3nc2n(Cc2ccco2)c1=NC(=O)c1c(F)cccc1Cl`, the “activity change, negative = inhibition” value is inactive: -21.6%.
For `COC(=O)c1cc2occc2n1Cc1nc(-c2cccc(Cl)c2)oc1C` the value was inactive: -1.63%; for `COc1ccc(NC(=O)c2c(C)oc3ccc(O)c(CN4CCCCCC4)c23)cc1Cl`, inactive: -21.8%.
The result for `COc1ccc(/C=C/c2nc(C#N)c(NCCc3ccccc3)o2)cc1OC` reads inactive: -9.73%; that for `COc1ccc(Nc2nc3c(S(=O)(=O)c4ccccc4)nnn3c3ccsc23)cc1OC`, inactive: -13.7%.
Turning to `COc1ccc(CCNC(=O)c2cn(C)c3ccc(S(=O)(=O)N(C)C4CCCCC4)cc3c2=O)cc1OC`, the activity change, negative = inhibition was inactive: -16.9% [at 11.5 µM].
The result for `CC(=O)Nc1ccc(S(=O)(=O)Nc2cc(-c3cn4ccccc4n3)ccc2C)cc1` reads inactive: 14.6%.
The result for `COc1cccc(-n2c(=O)c3c(C)c(C)sc3n(CC(=O)NCc3ccccc3)c2=O)c1` reads inactive: 2.44%.
For `COc1ccc(-c2nsc(NC(=O)C(C)Oc3ccc(Cl)c(C)c3)n2)cc1` (centres undefined) the value was inactive: -7.8%.
For `Cc1ccc(C)c(Cn2c(=O)cc(C)c3c(C)nn(-c4cccc(F)c4)c32)c1`, the “activity change, negative = inhibition” value is inactive: 1.38%.
As to `COc1ccc(NC(=O)c2cnc(Nc3ccc(C)c(Cl)c3)c3ccccc23)cc1OC`, the “activity change, negative = inhibition” value was inactive: -12%.
The result for `CCCN(CCC)CCNC(=O)c1ccc2c(c1)NC(=O)C(CS(=O)(=O)Cc1cccc(Br)c1)N2` (centres undefined) reads inactive: -7.99%; that for `Cc1sc2ncn(CC(=O)N3CCN(c4cccc(Cl)c4)CC3)c(=O)c2c1S(=O)(=O)N1CCN(c2ncccn2)CC1`, inactive: -16.4%.
Take `COc1ccc(NC(=O)c2ccc3c(SCC(=O)O)c4c(nc3c2)CCC4)c(OC)c1`: the “activity change, negative = inhibition” value is inactive: -6.33%.
For `CCOc1ccccc1N1CC(c2nc3ccccc3n2Cc2c(C)cc(C)cc2C)CC1=O` (centres undefined) the value was inactive: 25.3%.
In the case of `COc1ccc(-c2nc(C)c(CCNC(=O)C(=O)Nc3cc(C)cc(C)c3)s2)cc1OC`, the “activity change, negative = inhibition” value was inactive: 2.56%.
Regarding `N[C@@H](CC(=O)N1CCn2c(nnc2C(F)(F)F)C1)Cc1cc(F)c(F)cc1F`, the “activity change, negative = inhibition” value is inactive: 4.36%.
For `CCOCCCNC(=O)C(c1ccc(OC)cc1)N(Cc1ccc2c(c1)OCO2)C(=O)c1ccccc1O` (centres undefined) the value was inactive: -23.7%.
The result for `Cc1ccc(NC(=O)Cn2nc(C)n3cccc3c2=O)c(C)c1` reads inactive: -5.76%; that for `Cc1cccc(N2CCN(C(=O)c3cc4c(=O)n(C)c5ccccc5c4s3)CC2C)c1` (centres undefined), inactive: -8.98%; that for `Cc1c(F)c(N2CCNC(C)C2)cc2c1c(=O)c(C(=O)O)cn2C1CC1` (centres undefined), inactive: 4.09%.
For `COc1ccc(N2CC(C(=O)NCc3nnnn3-c3ccc(C)c(C)c3)CC2=O)cc1` (centres undefined) the value was inactive: 6.35%; for `COc1ccccc1NC(=O)Cn1c(=O)c(CNc2ccc(C)cc2)cc2cc3c(cc21)OCCO3`, inactive: -24.1%; for `COc1ccc(CCNC(=O)C(=O)NCC(c2ccco2)S(=O)(=O)c2ccccc2)cc1` (centres undefined), inactive: -26%.
On to `COc1ccc(-c2nnc3n2N(C(C)=O)C(c2ccc(Cl)c(Cl)c2)=C(C(C)=O)S3)cc1`, for which the “activity change, negative = inhibition” value was inactive: -9.1%.
For `O=c1[nH]c(=O)n(C2CCCCC2)c(O)c1C1=Nc2ccccc2SC(c2ccc(Cl)cc2)C1` (centres undefined) the value was inactive: -19.7%.
Turning to `COc1ccc2cc3cc(C(=O)N4CCN(c5ccccc5F)CC4)oc3nc2c1`, the “activity change, negative = inhibition” value is inactive: 0.567%.
The result for `CCCOc1ccc(C2CC(=O)Nc3c2c(C)nn3-c2nncc(-c3cccc(OC)c3)n2)cc1OC` (centres undefined) reads inactive: 4.37%; that for `Cc1cccc(NC(=O)c2ccc3c(c2)CCN3S(=O)(=O)c2ccccc2)c1C`, inactive: -29.4%; that for `COc1cccc(OC)c1C(=O)Nc1nc2c(s1)CCc1ccccc1-2`, inactive: -11.6%.
For `Cc1nc2c(c(C)c1CCC(=O)NCc1ccc(Cl)cc1)c(=O)n(C)c(=O)n2C`, the “activity change, negative = inhibition” value was inactive: -0.976%.
As for `COC(=O)c1ccc(NC(=O)N2CCN(Cc3cc(=O)n4nc(-c5ccc(C)cc5)sc4n3)CC2)cc1`, the “activity change, negative = inhibition” value was inactive: -13.5%.
For `CC(CNC(=O)CN1C(=O)c2cccnc2Oc2ccc(Cl)cc21)c1ccccc1` (centres undefined) the value was inactive: -4.07%; for `COc1ccc(-c2noc(-c3ccc(N4CCN(c5ccccc5)CC4)c([N+](=O)[O-])c3)n2)cc1`, inactive: -5.35%; for `O=C(NCc1nc2ccccc2[nH]1)c1c(F)cccc1F`, inactive: -3.83%.
The result for `Cc1cccc(-n2c(C)nc3cc(C(=O)NCCC4=CCCCC4)ccc32)c1` reads inactive: 12.9%; that for `COc1ccc(NC(=O)CCNS(=O)(=O)c2cccc3nsnc23)cc1Cl`, inactive: -5.25%.
The result for `CCn1c(=O)cc(OCC(=O)N2CCN(c3ccc(OC)cc3)CC2)c2ccccc21` reads inactive: -15.3%.
With `CCCS(=O)(=O)N1CC(=O)N(c2ccc(C)cc2)C(C)(C(=O)NC2CCCCCC2)C1` (centres undefined), the “activity change, negative = inhibition” value was inactive: -8.11%.
Take `CCOc1ccccc1CN1CCc2nc(Nc3ccc4c(c3)OCCO4)ncc2C1`: the “activity change, negative = inhibition” value was inactive: -23.9%.
For `O=C(CSc1nc(Nc2ccc(F)cc2)c2ccccc2n1)c1ccc(F)cc1` the value was inactive: -23.9%; for `CCOc1ccc(NC(=O)Cn2c(=O)c(CNc3ccc(CC)cc3)cc3cc4c(cc32)OCO4)cc1`, inactive: -18.3%.
In the case of `Cc1cc(C)c2nc(NC(=O)c3ccc(S(=O)(=O)N4CCc5ccccc54)cc3)sc2c1`, the “activity change, negative = inhibition” value was inactive: -13.3%.
Regarding `Cc1ccc(CNc2ncnc3onc(-c4ccc(F)cc4)c23)cc1`, the “activity change, negative = inhibition” value is inactive: -15.7%.
The result for `COc1cc(OC)c(NC(=O)N2CCCn3nc(C)cc32)cc1Cl` reads inactive: -7.17%; that for `COc1ccc(-c2nnc(SCC(=O)NC3CCCCC3)nc2-c2ccc(OC)cc2)cc1`, inactive: -10.1%; that for `COCCn1c(C)cc(O)c(C(c2ccccc2)N2CCN(c3ccccc3)CC2)c1=O` (centres undefined), inactive: 0.393%.
The result for `O=C(Cn1c(=O)n(Cc2ccc3c(c2)OCO3)c(=O)c2oc3ccccc3c21)Nc1ccccc1F` reads inactive: -0.393%.
In the case of `CCc1cccc(NC(=O)CN2Cc3ccccc3C2=O)c1`, the “activity change, negative = inhibition” value is inactive: -14.6%.
The result for `CCOc1ccc(C2CC(=O)Nc3cc4c(cc32)OCO4)cc1OC` (centres undefined) reads inactive: -31.4%; that for `CCOC(=O)c1c(S(=O)(=O)N2CCCC(C(=O)Nc3ccccn3)C2)c(C)n(C)c1C` (centres undefined), inactive: -2.51%.
The result for `CC(=O)N1CCc2c(sc3c2c(=O)n(-c2ccc(C)cc2)c(=O)n3Cc2c(F)cccc2Cl)C1` reads inactive: -19.3%.
Consider `Cc1ccc(CNC(=O)C2CCN(S(=O)(=O)c3ccc(F)cc3)CC2)cc1`, for which the “activity change, negative = inhibition” value is inactive: -19.2%.
Turning to `COc1ccccc1CNC(=O)c1cccn1-c1nnc(N2CCCCC2)s1`, the “activity change, negative = inhibition” value is inactive: -18.2%.
In the case of `COC(=O)c1c(NC(=O)Cc2coc3cc(C)ccc23)sc2c1CCCC2`, the “activity change, negative = inhibition” value was inactive: -16.6%.
`CCCOc1cccc(C2c3c(oc4ccccc4c3=O)C(=O)N2c2nncs2)c1` (centres undefined): the “activity change, negative = inhibition” value is inactive: -7.99%.
The result for `Cc1ccc2cccc(NC(=O)COc3ccccc3Cl)c2n1` reads inactive: -4.85%.
On to `Cc1ccc(C)c(Cn2c(CCCNC(=O)C3CCCCC3)nc3ccccc32)c1`, for which the “activity change, negative = inhibition” value is inactive: -27.5%.
The result for `Cc1nc(-c2cccc(NC(=O)Nc3ccccc3C(F)(F)F)c2)no1` reads inactive: -7.53%.
